Experimental data published in paper PMC7170388, “Strong inhibitory activities and action modes of lipopeptides on lipase” (Journal of Enzyme Inhibition and Medicinal Chemistry, 2020).

Columns and labels:
Mucor miehei lipase [1] = target: T1, Mucor miehei lipase (Rhizomucor miehei, UniProt P19515); test: Lipase inhibition (4-NPP hydrolysis, 405 nm); conditions: 0.75 mM 4-NPP, 0.4 µg/mL lipase, Tris-HCl buffer pH 7.8, 37 °C, crude lipopeptide and purified fengycin dissolved in water, iturin and surfactin standards in methanol
T1 sequence (P19515 95-363): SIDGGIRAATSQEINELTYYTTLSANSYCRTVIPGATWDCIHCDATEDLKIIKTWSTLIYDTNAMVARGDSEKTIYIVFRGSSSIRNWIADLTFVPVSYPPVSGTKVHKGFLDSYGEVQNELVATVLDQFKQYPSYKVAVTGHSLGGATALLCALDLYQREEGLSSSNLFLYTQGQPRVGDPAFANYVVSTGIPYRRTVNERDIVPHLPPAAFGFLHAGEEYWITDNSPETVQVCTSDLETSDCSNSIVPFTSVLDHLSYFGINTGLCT
Protocol: Lyophilised powder of Mucor miehei lipase (EC3.1.1.3), 4-Nitrophenyl palmitate (4-NPP), iturin, and surfactin were purchased from Sigma-Aldrich (St. Louis, MO). Acetonitrile, hydrochloric acid (HCl) and Tris were purchased from Sinopharm (Shanghai, China).
The lipase inhibition was determined according to the method described by Liu et al.[21] 10 µg/mL lipase in water and 7.5 mmol/L 4-NPP in acetonitrile solutions were prepared. The crude lipopeptide and purified fengycin were dissolved in water, while the iturin and surfactin standards were dissolved in methanol, and then all were diluted to their appropriate concentrations. The 1 mL reaction mixture contained 0.75 mM 4-NPP, 0.4 µg/mL lipase, and different concentrations of inhibitor in Tris-HCl buffer (pH 7.8). The reaction was carried out at 37 °C and the detection wavelength was set at 405 nm.

Mucor miehei lipase [2] = target: T2, Mucor miehei lipase (Mucor miehei, UniProt P19515 95-363)
T2 sequence (looked up): T1 sequence (P19515 95-363)

| Substance | IC50 (half maximal inhibitory concentration), Measured (Mucor miehei lipase [1]) [µg/mL] | peak absorbance of the product at 405 nm after 10 min of lipase catalysis with 0.015 mg/mL lipopeptide (Mucor miehei lipase [2]) [%] |
| --- | --- | --- |
| surfactin | 5 |  |
| iturin | 56 |  |
| crude lipopeptide from Bacillus velezensis FJAT-52631 |  | 54.5 |
| fengycin | 5 |  |
